Data reported in PubChem BioAssay AID485364 (National Center for Advancing Translational Sciences (NCATS), 2010).
Hit rate of the full screen: of about 360,000 compounds, about 11,000 (3.1%) were called active. Inconclusive results, whose numbers are uncertain, are shown with a selection of clear calls. The call rests on the fitted dose curve; in most records, active means well fitted inhibition curve with a large enough effect; inconclusive means small, poorly fitted or top-dose-only effect; inactive means no such curve, though single readings can be large or run the other way. Potencies of inconclusive entries are left out as doubtful fits.

target: Schistosoma mansoni thioredoxin glutathione reductase (TGR) (UniProt Q962Y6); experiment: qHTS Assay for the Inhibitors of Schistosoma Mansoni Peroxiredoxins; conditions: purified TGR, DTNB reduction, TNB absorbance 405 nm; series mostly up to 114 µM; further: nearly all actives have a fitted effect of over 60% in size
How it was run: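 First, TGR (20 nM dispensed) and NADPH were mixed with compound. Second, a 15 min room-temperature incubation followed. Third, further NADPH and then DTNB were added to start the reaction. Finally, TNB absorbance was monitored kinetically.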
Potency means the concentration at half of the fitted maximal effect; tags describe the fitted curve by direction and shape.

SMILES | Potency
COC(=O)c1cc(OC)c(OC)cc1NC(=S)NC(=O)c1ccco1 | active: 11.2 µM
CCOC(=O)Cc1csc(NC(=O)CCCc2ccccc2)n1 | inconclusive [inhibitor, single point]
CCCN(CCC)c1nc2c(C)cccn2c(=O)c1/C=C1/SC(=S)N(Cc2ccco2)C1=O | inconclusive [inhibitor, partial curve]
Cc1cc(C)c(NC(=O)CSc2nnc(-c3ccco3)n2N)c(C)c1 | inconclusive [inhibitor, partial curve]
O=C(Oc1ccc(/C=N/NC(=O)c2ccco2)cc1)c1ccccc1 | inactive
COCCCn1c(C(=O)NC2CCCCC2C)cc2c(=O)n3cccc(C)c3nc21 (stereo not given) | inactive
COc1ccccc1CNC(=O)c1ccc(CS(=O)Cc2cccc(Cl)c2)o1 (stereo not given) | active: 22.4 µM
COc1ccc(CN2CCNC(=O)C2CC(=O)N2CCCCO2)cc1OC (stereo not given) | inconclusive [inhibitor, partial curve]
CCOC(=O)c1ccc(NS(=O)(=O)c2cc3c(cc2C)NC(=O)CO3)cc1 | inconclusive [inhibitor, full curve]
CCC(=O)N(CCC(Cc1ccccc1)c1ccco1)Cc1ccco1 (stereo not given) | inconclusive [inhibitor, full curve, poor fit]
O=C(CC1NC(=S)NC1=O)c1ccc(Cl)cc1 (stereo not given) | inconclusive [inhibitor, partial curve]
CC(=O)c1c(COC(=O)c2ccco2)nc2ccccc2[n+]1[O-] | active: 39.8 µM
COc1ccc(NC(=O)CN2C(=O)/C(=C3\SC(=S)N(C4CCS(=O)(=O)C4)C3=O)c3ccccc32)cc1 (stereo not given) | inconclusive [inhibitor, partial curve]
COc1ccc(NC(=O)c2ccccc2OCc2c(C)noc2C)cc1OC | inactive
O=C(COc1ccccc1Cl)N1N=C(c2cccs2)CC1c1ccco1 (stereo not given) | active: 35.5 µM
Cc1cc(C)c2cc(C#N)c(N3CCCN(C(=S)NCCCN(C)C)CC3)nc2c1 | inconclusive [inhibitor, partial curve, poor fit]
O=C(c1ccco1)N1CCN(C(c2ccc(Cl)cc2)c2nnnn2Cc2ccccc2)CC1 (stereo not given) | inconclusive [inhibitor, partial curve]
CCN1c2ccccc2-c2nc3ccccc3n2C1c1ccncc1 (stereo not given) | inactive
O=[N+]([O-])c1ccc(N=Nc2ncc[nH]2)cc1 | inconclusive [inhibitor, full curve]
O=C(O)CC(C(=O)O)N1C(=O)/C(=C/c2ccc(-c3nc4ccccc4s3)o2)SC1=S (stereo not given) | inconclusive [inhibitor, partial curve, poor fit]
COc1cc(/C=C/c2cc[n+](C)cc2)ccc1OCC(=O)Nc1ccc(Cl)c(Cl)c1 | inconclusive [inhibitor, partial curve]
Cc1ccc(C)c(N2CCN(CCCNC(=O)c3ccc4nc(N5CCC(C)CC5)sc4c3)CC2)c1 | inactive
N#C/C(=C/c1ccc(N2CCCCCC2)o1)c1ccc(Cl)cc1 | inconclusive [inhibitor, full curve]
C=CCOc1ccc(C2=NO[C@@H]3[C@@H]4C[C@@H]([C@H]5C(=O)N(C)C(=O)[C@@H]45)[C@H]23)cc1 | inconclusive [inhibitor, partial curve]

SMILES | Potency
C=CCOc1ccc(CNn2c(C)n[nH]c2=S)cc1OC | inactive
O=C1C(Cl)=C(Nc2ccccc2O)C(=O)N1CCc1ccccc1 | active: 28.2 µM
COC(=O)c1ccc(NC(=O)c2ccc3nc(C)sc3c2)cc1 | inconclusive [inhibitor, single point]
FC(F)(F)c1cccc(N2CCC(N=CN3CCCCCC3)=N2)c1 | inconclusive [inhibitor, partial curve]
CCCc1ccc(OCC(=O)Nc2sc3c(c2C(=O)OCC)CCC(C(C)(C)C)C3)cc1 (stereo not given) | inactive
CCN1CCN(CC(=O)Nc2nc3ccc(C)cc3s2)CC1 | inactive
Cc1ccc(-c2nc(S(=O)(=O)c3ccc(C)cc3)c(N(C)C)o2)cc1 | active: 2.51 µM
COc1ccc(CNC(=O)C(=O)NCC(c2cccnc2)N2CCN(c3ccccc3)CC2)cc1 (stereo not given) | inactive
CCOC(=O)Oc1ccc(/C=C2\N=C(C)OC2=O)cc1 | active: 12.6 µM
Cc1ccc(C(=O)O)cc1NC(=S)NC(=O)c1ccc([N+](=O)[O-])cc1Cl | inconclusive [inhibitor, partial curve]
CCOC(=O)C1(CCOc2ccccc2)CCN(Cc2ccc(C)o2)CC1 | inconclusive [inhibitor, full curve, poor fit]
Cc1ccccc1S(=O)(=O)Cc1ccc(C(=O)NCCN(CC(C)C)CC(C)C)o1 | inconclusive [inhibitor, partial curve]
Clc1ccc(CSc2nncn3c2cc2occc23)cc1 | inconclusive [inhibitor, partial curve]
O=C1c2ccccc2NC(c2ccncc2)N1c1ccccn1 (stereo not given) | inactive
CCc1nc2nc(C)cc(Nc3cc(C)ccc3C)n2n1 | inconclusive [inhibitor, partial curve]
COc1ccc(N2CC(NC(=O)C(c3ccccc3)c3ccccc3)CC2=O)cc1 (stereo not given) | inconclusive [inhibitor, single point]
CCn1c(SCC(=O)Nc2cc(C(C)(C)C)nn2-c2ccccc2)nnc1-c1cccs1 | inactive
Cc1ccccc1C1=N/C(=C/c2cccnc2)C(=O)O1 | inconclusive [inhibitor, full curve]
CCCCn1c(N)c(N(CC)C(=O)/C=C/c2ccco2)c(=O)[nH]c1=O | active: 22.4 µM
CN(CCCNC(=O)c1cccc(N2CCCC2=O)c1)c1ccccc1 | inconclusive [inhibitor, partial curve]
CC(C)CCNC(=O)C(c1ccc(O)cc1)N(C(=O)C1COc2ccccc2O1)c1cccc(O)c1 (stereo not given) | inconclusive [inhibitor, partial curve]
Nc1c(Cl)ncnc1N/N=C/c1ccccn1 | inconclusive [inhibitor, partial curve]
COc1ccccc1NC(=O)/C=C/C(N)=O | active: 2.82 µM
Cc1nc2c(=O)n(C)c(=O)nc-2n(C)n1 | inconclusive [inhibitor, full curve, poor fit]

SMILES | Potency
CCCCCCNC(=O)c1cc(-c2ccco2)nc2ccccc12 | active: 3.16 µM
COc1cccc(NC(=S)NCc2cccs2)c1 | inactive
Cc1ccc(C)c(N2CCN(c3ccc4cc(S(=O)(=O)N5CCCCC5)ccc4n3)CC2)c1 | inactive
CCOc1ccc(CCNC(=O)c2ccc(CSCc3ccccc3C)o2)cc1OCC | inactive
O=C(CSc1nc(=O)n(Cc2ccncc2)c2c1CCC2)Nc1cccc(F)c1 | inconclusive [inhibitor, single point]
COc1ccc(-c2cc(C(F)(F)F)n3nc(C(=O)NCc4ccco4)cc3n2)cc1 | inconclusive [inhibitor, partial curve]
CCCC(=O)Nc1ccc(Cl)c(NC(=O)c2ccc(Br)o2)c1 | inconclusive [inhibitor, full curve, poor fit]
CN(C(=O)COC(=O)/C=C/c1cccc([N+](=O)[O-])c1)C1CCS(=O)(=O)C1 (stereo not given) | inconclusive [inhibitor, single point]
Cc1c(/C(O)=C2\C(=O)C(=O)N(CCN(C)C)C2c2ccco2)cnn1-c1ccccc1 (stereo not given) | inconclusive [inhibitor, partial curve]
COc1ccc2[nH]c(C)c(CCNCc3cn(C)c4ccccc34)c2c1 | inconclusive [inhibitor, partial curve]
C/C(Cn1cnc([N+](=O)[O-])n1)=N\NC(=O)c1ccccc1O | inactive
Cc1cc(O)c(C(=O)/C=C/c2ccccc2)c(=O)o1 | inconclusive [inhibitor, partial curve]
Cc1cc(O)c(Oc2cc(C)cc(O)c2O)c(O)c1 | inconclusive [inhibitor, full curve, poor fit]
Cc1ccc(CN2CCN(Cc3cn[nH]c3-c3ccccc3)CC2CCO)o1 (stereo not given) | inconclusive [inhibitor, partial curve]
O=C(C1=C[C@H](c2csc3ccccc23)C[C@H](OCCCCO)O1)N1CCN(Cc2ccccc2)CC1 | active: 17.8 µM
COc1cc(C(=O)OCC(=O)Nc2c(F)c(F)c(F)c(F)c2F)cc(OC)c1OC | inconclusive [inhibitor, single point]
COc1ccc(/C=N/N=C2/NC(=O)C(CC(=O)NC(N)=O)S2)cc1 (stereo not given) | inconclusive [inhibitor, single point]
Cn1cc(CN2CCc3c([nH]c4ccccc34)C2C(C)(C)C)cn1 (stereo not given) | inconclusive [inhibitor, partial curve]
NC(=O)c1c(NC(=O)C2CCCO2)sc2c1CCCCC2 (stereo not given) | inconclusive [inhibitor, partial curve]
COc1ccc2c(c1)c(CC(=O)Nc1cc(C)ccc1C)c(C)n2C(=O)c1ccc(Cl)cc1 | inactive
CC(=O)c1c(C)n(C)c2ccc(OC(=O)c3ccc([N+](=O)[O-])cc3)cc12 | inactive
Cc1ccc(/C=C/C(=O)OC(C)C(=O)Nc2ncc(Cl)cc2Cl)o1 (stereo not given) | inconclusive [inhibitor, partial curve]
